Tests used:
[1] = tested on: adults with T2D and overweight/obesity; assay: Phase 2 26-week placebo-controlled study in T2DM with overweight/obesity: safety; settings: 26 weeks
[2] = tested on: adults with T2D and overweight/obesity; settings: in vivo

CCCCCCCCCCCCCCCC(=O)N[C@@H](CCC(=O)NCCCC[C@H](NC(=O)[C@H](CO)NC(=O)[C@@H]1CCCN1C(=O)[C@@H]1CCCN1C(=O)[C@@H]1CCCN1C(=O)[C@H](C)NC(=O)CNC(=O)[C@H](CO)NC(=O)[C@H](CO)NC(=O)[C@@H]1CCCN1C(=O)CNC(=O)CNC(=O)[C@H](C)NC(=O)[C@H](CC(C)C)NC(=O)[C@H](CC(C)C)NC(=O)[C@H](Cc1c[nH]c2ccccc12)NC(=O)[C@H](CC(N)=O)NC(=O)[C@@H](NC(=O)[C@H](Cc1ccccc1)NC(=O)[C@H](CCC(=O)O)NC(=O)C(C)(C)NC(=O)[C@H](C)NC(=O)[C@H](C)NC(=O)[C@H](CCC(N)=O)NC(=O)[C@H](CCCCN)NC(=O)[C@H](CC(=O)O)NC(=O)[C@H](CC(C)C)NC(=O)[C@H](Cc1ccc(O)cc1)NC(=O)[C@@H](NC(=O)[C@H](CO)NC(=O)[C@H](Cc1ccc(O)cc1)NC(=O)[C@H](CC(=O)O)NC(=O)[C@H](CO)NC(=O)[C@@H](NC(=O)[C@H](Cc1ccccc1)NC(=O)[C@@H](NC(=O)CNC(=O)[C@H](CCC(=O)O)NC(=O)CSCC(=O)NCCN1CCCCC1=O)[C@@H](C)O)[C@@H](C)O)[C@@H](C)CC)C(C)C)C(N)=O)C(=O)O [CT-868]
Fatal TEAEs ([1]; CT-868 1.75 mg): 0 n (%) | Fatal TEAEs ([1]; CT-868 3.25 mg): 0 n (%) | Fatal TEAEs ([1]; CT-868 4 mg): 0 n (%) | constipation [2]: 8-20% | diarrhea [2]: 37-44% | gastrointestinal (GI)-related AEs [2]: 60% | hypoglycemia (in words) [2]: No clinically significant hypoglycemia was reported | mean heart rate increase [2]: 1.7±8.8 to 2.3±8.7 | nausea [2]: 16-28% | safety and tolerability (in words) [2]: safe and well-tolerated with no treatment-related discontinuations | vomiting [2]: 8-10%

Source: patent US20240366728A1, “Treatment of Diabetes Mellitus” (Carmot Therapeutics Inc., priority 2023, published 2024)
